14 compounds from the antibiotic and cytotoxicity screens of Wong et al. (2023) can be followed below.

Structures are written as SMILES. The list shows a part of the results.

The subject of the assay is S. aureus RN4220. Description: growth inhibition call (relative growth <= 0.2). The conditions noted are these: 50 µM.
As to `C[C@]12CC[C@@H]3c4ccc(OC(=O)N(CCCl)CCCl)cc4CC[C@H]3[C@@H]1CC[C@@H]2OP(=O)(O)O`, the growth inhibition call was “inactive”. For the compound `CN1C(=O)NC(=O)/C(=C\C=C\c2ccco2)C1=O`, the growth inhibition call is “inactive”. In the case of `C[C@H]1O[C@H](n2cnc3c(N)ncnc32)C[C@@H]1O`, the growth inhibition call was “inactive”.

With `C[C@H]1CN([C@@H](C)CO)C(=O)c2c(c3ccccc3n2C)-c2ccccc2CO[C@@H]1CN(C)C(=O)Oc1ccccc1`, the growth inhibition call is “inactive”. `CO[C@H]1[C@@H](O)[C@@H](C)O[C@H](O[C@H]2CC[C@@]3(C)[C@H]4CC[C@@]5(C)[C@@H](C6=CC(=O)OC6)CC[C@]5(O)[C@@H]4CC[C@]3(O)C2)[C@@H]1O`: the growth inhibition call is “inactive”. Regarding `C1CCc2nnnn2CC1`, the growth inhibition call was “inactive”. With `COC(=O)[C@H]1[C@H](CO)[C@H]2Cn3c(ccc(C4=CCCC4)c3=O)[C@@H]1N2S(=O)(=O)c1cn(C)cn1`, the growth inhibition call was “inactive”.

On to `Clc1ccc(C(c2ccc(Cl)cc2)C(Cl)(Cl)Cl)cc1`, for which the growth inhibition call is “inactive”. With `C[C@H](O)[C@@]12[C@H]3CC=C[C@@H]1N2CC3` (some centres undefined), the growth inhibition call is “inactive”. As for `Cc1nn[nH]n1`, the growth inhibition call is “inactive”. For `C[C@H]1CN([C@@H](C)CO)C(=O)CCCn2cc(nn2)CO[C@@H]1CN(C)C(=O)Oc1ccc2ccccc2c1`, the growth inhibition call was “inactive”. Regarding `Oc1cc2c(cc1O)CNCC2`, the growth inhibition call is “inactive”. On to `C=CCN=C=S`, for which the growth inhibition call is “inactive”.

On to `C=C(CCCCCCCCCCCCCCCC)OOC[C@@H](COP(=O)(ON)O[C@@H]1[C@H](O)[C@H](O)[C@@H](OP(=O)(O)ON)[C@H](OP(=O)(O)ON)[C@H]1O)OOC(=C)CC/C=C/C/C=C/C/C=C/C/C=C/CCCCC` (some centres undefined), for which the growth inhibition call is “inactive”.
